# Some of the results follow.
# B1: LTL (Lotus tetragonolobus), P19664 (protein)
# chain: VSFNYTEFKDDGSLILQGDAKIWTDGRLAMPTDPLVNNPKTTRSAGRALYATPVPIWDSATGNVASFVTSFNFLFVIRELKYTPTDGLVFFLAPVGTEIPSGSTGGFLGIFDGSNGFNQFVAVEFDSYHNIWDPKSLRSSHVGIDVNSIMSLKAVNWNRVSGSLEKATIIYDSQTNILSVVMTSQNGQITTIYGTIDLKTVLPEKVSVGFSATTGNPEREKHDIYSWSFTSTLKEPEEQA
# Key:
# Assay in all cases: glycan array binding signal (z-score within array); higher = stronger binding
# Conditions in all cases: glycan notation: IUPAC condensed, linker removed
# [1] = target: GlcA(b1-6)Gal
# Method in brief: (§1)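 Glycan array binding is given as a within-array Z-score, which can be read as non-binding when negative. The arrays, 3228 of them, came from the Consortium for Functional Glycomics database and were retained only where the protein sequence was available. Z-scores were averaged across arrays of the same protein sequence at different concentrations or buffers and across linkers.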
# [2] = target: GlcA3S(b1-3)Gal(b1-4)GlcNAc(b1-2)Man
# Method in brief: as §1
# [3] = target: GlcA3S(b1-3)Gal(b1-4)GlcNAc(b1-3)Gal(b1-4)Glc
# Method in brief: as §1
# [4] = target: GlcNAc(a1-3)Gal(b1-4)GlcNAc
# Method in brief: as §1
# [5] = target: GlcNAc(a1-4)Gal(b1-3)GlcNAc
# Method in brief: as §1
# [6] = target: GlcNAc(a1-4)Gal(b1-4)GalNAc
# Method in brief: as §1
# [7] = target: GlcNAc(a1-4)Gal(b1-4)GlcNAc
# Method in brief: as §1
# [8] = target: GlcNAc(a1-4)Gal(b1-4)GlcNAc(b1-3)Gal(b1-4)Glc
# Method in brief: as §1
# [9] = target: GlcNAc(a1-4)Gal(b1-4)GlcNAc(b1-3)Gal(b1-4)GlcNAc
# Method in brief: as §1
# [10] = target: GlcNAc(a1-4)Gal(b1-4)GlcNAc(b1-3)Gal(b1-4)GlcNAc(b1-3)Gal(b1-4)GlcNAc
# Method in brief: as §1
# [11] = target: GlcNAc(a1-4)Gal(b1-4)GlcNAc(b1-3)Gal(b1-4)[Fuc(a1-3)]GlcNAc(b1-3)Gal(b1-4)[Fuc(a1-3)]GlcNAc
# Method in brief: as §1
# [12] = target: GlcNAc(a1-6)Gal(b1-4)GlcNAc
# Method in brief: as §1
# [13] = target: GlcNAc(b1-2)Gal(b1-3)GalNAc
# Method in brief: as §1
# [14] = target: GlcNAc(b1-2)Gal(b1-3)GlcNAc
# Method in brief: as §1
# [15] = target: GlcNAc(b1-2)Man(a1-3)[GlcNAc(b1-2)Man(a1-6)]Man(b1-4)GlcNAc(b1-4)GlcNAc
# Method in brief: as §1
# [16] = target: GlcNAc(b1-2)Man(a1-3)[GlcNAc(b1-2)Man(a1-6)]Man(b1-4)GlcNAc(b1-4)[Fuc(a1-6)]GlcNAc
# Method in brief: as §1
# [17] = target: GlcNAc(b1-2)Man(a1-3)[GlcNAc(b1-4)][GlcNAc(b1-2)Man(a1-6)]Man(b1-4)GlcNAc(b1-4)GlcNAc
# Method in brief: as §1
# [18] = target: GlcNAc(b1-2)Man(a1-3)[GlcNAc(b1-4)][GlcNAc(b1-2)Man(a1-6)]Man(b1-4)GlcNAc(b1-4)[Fuc(a1-6)]GlcNAc
# Method in brief: as §1
# [19] = target: GlcNAc(b1-2)[GlcNAc(b1-4)]Man(a1-3)[GlcNAc(b1-2)Man(a1-6)]Man(b1-4)GlcNAc(b1-4)GlcNAc
# Method in brief: as §1
# [20] = target: GlcNAc(b1-2)[GlcNAc(b1-4)]Man(a1-3)[GlcNAc(b1-4)][GlcNAc(b1-2)Man(a1-6)]Man(b1-4)GlcNAc(b1-4)GlcNAc
# Method in brief: as §1
# [21] = target: GlcNAc(b1-2)[GlcNAc(b1-4)]Man(a1-3)[GlcNAc(b1-4)][GlcNAc(b1-2)[GlcNAc(b1-6)]Man(a1-6)]Man(b1-4)GlcNAc(b1-4)GlcNAc
# Method in brief: as §1
# [22] = target: GlcNAc(b1-2)[GlcNAc(b1-4)]Man(a1-3)[GlcNAc(b1-4)][GlcNAc(b1-2)[GlcNAc(b1-6)]Man(a1-6)]Man(b1-4)GlcNAc(b1-4)[Fuc(a1-6)]GlcNAc
# Method in brief: as §1
# [23] = target: GlcNAc(b1-2)[GlcNAc(b1-6)]Man(a1-6)[GlcNAc(b1-2)Man(a1-3)]Man(b1-4)GlcNAc(b1-4)GlcNAc
# Method in brief: as §1
# [24] = target: GlcNAc(b1-2)[GlcNAc(b1-6)]Man(a1-6)[GlcNAc(b1-2)Man(a1-3)]Man(b1-4)GlcNAc(b1-4)[Fuc(a1-6)]GlcNAc
# Method in brief: as §1
# [25] = target: GlcNAc(b1-2)[GlcNAc(b1-6)]Man(a1-6)[GlcNAc(b1-4)][GlcNAc(b1-2)Man(a1-3)]Man(b1-4)GlcNAc(b1-4)GlcNAc
# Method in brief: as §1
# [26] = target: GlcNAc(b1-3)Fuc
# Method in brief: as §1
# [27] = target: GlcNAc(b1-3)Gal
# Method in brief: as §1
# [28] = target: GlcNAc(b1-3)Gal(b1-3)GalNAc
# Method in brief: as §1
# [29] = target: GlcNAc(b1-3)Gal(b1-4)Glc
# Method in brief: as §1
# [30] = target: GlcNAc(b1-3)Gal(b1-4)GlcNAc
# Method in brief: as §1
# [31] = target: GlcNAc(b1-3)Gal(b1-4)GlcNAc(b1-2)Man(a1-3)[GlcNAc(b1-3)Gal(b1-4)GlcNAc(b1-2)Man(a1-6)]Man(b1-4)GlcNAc(b1-4)GlcNAc
# Method in brief: as §1
# [32] = target: GlcNAc(b1-3)Gal(b1-4)GlcNAc(b1-2)Man(a1-3)[GlcNAc(b1-3)Gal(b1-4)GlcNAc(b1-2)Man(a1-6)]Man(b1-4)GlcNAc(b1-4)[Fuc(a1-6)]GlcNAc
# Method in brief: as §1
# [33] = target: GlcNAc(b1-3)Gal(b1-4)GlcNAc(b1-2)[GlcNAc(b1-3)Gal(b1-4)GlcNAc(b1-6)]Man(a1-6)[GlcNAc(b1-3)Gal(b1-4)GlcNAc(b1-2)Man(a1-3)]Man(b1-4)GlcNAc(b1-4)GlcNAc
# Method in brief: as §1
# [34] = target: GlcNAc(b1-3)Gal(b1-4)GlcNAc(b1-3)Gal(b1-4)GlcNAc
# Method in brief: as §1
# [35] = target: GlcNAc(b1-3)Gal(b1-4)GlcNAc(b1-3)Gal(b1-4)GlcNAc(b1-2)Man(a1-3)[GlcNAc(b1-3)Gal(b1-4)GlcNAc(b1-3)Gal(b1-4)GlcNAc(b1-2)Man(a1-6)]Man(b1-4)GlcNAc(b1-4)GlcNAc
# Method in brief: as §1
# [36] = target: GlcNAc(b1-3)Gal(b1-4)GlcNAc(b1-3)Gal(b1-4)GlcNAc(b1-2)Man(a1-3)[GlcNAc(b1-3)Gal(b1-4)GlcNAc(b1-3)Gal(b1-4)GlcNAc(b1-2)Man(a1-6)]Man(b1-4)GlcNAc(b1-4)[Fuc(a1-6)]GlcNAc
# Method in brief: as §1
# [37] = target: GlcNAc(b1-3)Gal(b1-4)GlcNAc(b1-3)Gal(b1-4)GlcNAc(b1-2)[GlcNAc(b1-3)Gal(b1-4)GlcNAc(b1-3)Gal(b1-4)GlcNAc(b1-6)]Man(a1-6)[GlcNAc(b1-3)Gal(b1-4)GlcNAc(b1-3)Gal(b1-4)GlcNAc(b1-2)Man(a1-3)]Man(b1-4)GlcNAc(b1-4)[Fuc(a1-6)]GlcNAc
# Method in brief: as §1
# [38] = target: GlcNAc(b1-3)Gal(b1-4)GlcNAc(b1-3)Gal(b1-4)GlcNAc(b1-3)Gal(b1-4)GlcNAc(b1-2)Man(a1-3)[GlcNAc(b1-3)Gal(b1-4)GlcNAc(b1-3)Gal(b1-4)GlcNAc(b1-3)Gal(b1-4)GlcNAc(b1-2)Man(a1-6)]Man(b1-4)GlcNAc(b1-4)GlcNAc
# Method in brief: as §1
# [39] = target: GlcNAc(b1-3)Gal(b1-4)GlcNAc(b1-3)Gal(b1-4)GlcNAc(b1-3)Gal(b1-4)GlcNAc(b1-2)Man(a1-3)[GlcNAc(b1-3)Gal(b1-4)GlcNAc(b1-3)Gal(b1-4)GlcNAc(b1-3)Gal(b1-4)GlcNAc(b1-2)Man(a1-6)]Man(b1-4)GlcNAc(b1-4)[Fuc(a1-6)]GlcNAc
# Method in brief: as §1
# [40] = target: GlcNAc(b1-3)Gal(b1-4)GlcNAc(b1-3)Gal(b1-4)GlcNAc(b1-3)Gal(b1-4)GlcNAc(b1-2)[GlcNAc(b1-3)Gal(b1-4)GlcNAc(b1-3)Gal(b1-4)GlcNAc(b1-3)Gal(b1-4)GlcNAc(b1-6)]Man(a1-6)[GlcNAc(b1-3)Gal(b1-4)GlcNAc(b1-3)Gal(b1-4)GlcNAc(b1-3)Gal(b1-4)GlcNAc(b1-2)Man(a1-3)]Man(b1-4)GlcNAc(b1-4)[Fuc(a1-6)]GlcNAc
# Method in brief: as §1
# [41] = target: GlcNAc(b1-3)Gal(b1-4)GlcNAc(b1-3)Gal(b1-4)GlcNAc(b1-3)Gal(b1-4)GlcNAc(b1-3)Gal(b1-4)GlcNAc(b1-2)Man(a1-3)[GlcNAc(b1-3)Gal(b1-4)GlcNAc(b1-3)Gal(b1-4)GlcNAc(b1-3)Gal(b1-4)GlcNAc(b1-3)Gal(b1-4)GlcNAc(b1-2)Man(a1-6)]Man(b1-4)GlcNAc(b1-4)GlcNAc
# Method in brief: as §1
# [42] = target: GlcNAc(b1-3)Gal(b1-4)GlcNAc(b1-3)Gal(b1-4)GlcNAc(b1-3)Gal(b1-4)GlcNAc(b1-3)Gal(b1-4)GlcNAc(b1-2)Man(a1-3)[GlcNAc(b1-3)Gal(b1-4)GlcNAc(b1-3)Gal(b1-4)GlcNAc(b1-3)Gal(b1-4)GlcNAc(b1-3)Gal(b1-4)GlcNAc(b1-2)Man(a1-6)]Man(b1-4)GlcNAc(b1-4)[Fuc(a1-6)]GlcNAc
# Method in brief: as §1
# [43] = target: GlcNAc(b1-3)Gal(b1-4)GlcNAc(b1-3)Gal(b1-4)GlcNAc(b1-3)Gal(b1-4)GlcNAc(b1-3)Gal(b1-4)GlcNAc(b1-2)[GlcNAc(b1-3)Gal(b1-4)GlcNAc(b1-3)Gal(b1-4)GlcNAc(b1-3)Gal(b1-4)GlcNAc(b1-3)Gal(b1-4)GlcNAc(b1-6)]Man(a1-6)[GlcNAc(b1-3)Gal(b1-4)GlcNAc(b1-3)Gal(b1-4)GlcNAc(b1-3)Gal(b1-4)GlcNAc(b1-3)Gal(b1-4)GlcNAc(b1-2)Man(a1-3)]Man(b1-4)GlcNAc(b1-4)[Fuc(a1-6)]GlcNAc
# Method in brief: as §1
# [44] = target: GlcNAc(b1-3)Gal(b1-4)GlcNAc(b1-3)Gal(b1-4)GlcNAc(b1-3)GalNAc
# Method in brief: as §1
# [45] = target: GlcNAc(b1-3)Gal(b1-4)GlcNAc(b1-3)GalNAc
# Method in brief: as §1
binder,measurement,setting,value
B1,glycan array binding signal (z-score),[1],-0.25
same,glycan array binding signal (z-score),[2],0.005
same,glycan array binding signal (z-score),[3],0.102
same,glycan array binding signal (z-score),[4],-0.256
same,glycan array binding signal (z-score),[5],-0.263
same,glycan array binding signal (z-score),[6],0.03
same,glycan array binding signal (z-score),[7],-0.071
same,glycan array binding signal (z-score),[8],0.089
same,glycan array binding signal (z-score),[9],-0.153
same,glycan array binding signal (z-score),[10],-0.229
same,glycan array binding signal (z-score),[11],-0.006
same,glycan array binding signal (z-score),[12],-0.381
same,glycan array binding signal (z-score),[13],-0.188
same,glycan array binding signal (z-score),[14],-0.533
same,glycan array binding signal (z-score),[15],-0.3
same,glycan array binding signal (z-score),[16],-0.222
same,glycan array binding signal (z-score),[17],-0.152
same,glycan array binding signal (z-score),[18],-0.332
same,glycan array binding signal (z-score),[19],-0.144
same,glycan array binding signal (z-score),[20],-0.329
same,glycan array binding signal (z-score),[21],-0.395
same,glycan array binding signal (z-score),[22],-0.473
same,glycan array binding signal (z-score),[23],-0.167
same,glycan array binding signal (z-score),[24],-0.121
same,glycan array binding signal (z-score),[25],-0.353
same,glycan array binding signal (z-score),[26],-0.227
same,glycan array binding signal (z-score),[27],-0.327
same,glycan array binding signal (z-score),[28],-0.14
same,glycan array binding signal (z-score),[29],-0.196
same,glycan array binding signal (z-score),[30],-0.209
same,glycan array binding signal (z-score),[31],-0.103
same,glycan array binding signal (z-score),[32],0.576
same,glycan array binding signal (z-score),[33],0.085
same,glycan array binding signal (z-score),[34],-0.231
same,glycan array binding signal (z-score),[35],1.4
same,glycan array binding signal (z-score),[36],0.445
same,glycan array binding signal (z-score),[37],0.329
same,glycan array binding signal (z-score),[38],0.019
same,glycan array binding signal (z-score),[39],0.283
same,glycan array binding signal (z-score),[40],0.185
same,glycan array binding signal (z-score),[41],0.204
same,glycan array binding signal (z-score),[42],-0.252
same,glycan array binding signal (z-score),[43],0.216
same,glycan array binding signal (z-score),[44],-0.169
same,glycan array binding signal (z-score),[45],-0.05
